Assay in all cases: co-IP; HEK293T cells co-transfected with FLAG-DDX3 and HA-tagged constructs (cell line not named for the ALKBH5 deletion series); cells UV cross-linked, modified RIPA lysis buffer (150 mM NaCl, 50 mM Tris pH 8.0, 1% Nonidet P-40, 0.5% deoxycholate), sonicated; antibody on Dynabeads Protein G, 2 h at 4°C; Western blot; DDX3-ALKBH5 also with or without RNase A
(In general: A western blot detects proteins with antibodies after separation by electrophoresis.)

Experiment [1] addresses FLAG-DDX3 (full-length DDX3) (UniProt O00571).
Experiment [2] addresses ATP-binding domain of DDX3 alone (UniProt O00571).
The next experiment deals with METTL3, Q86U44. As to conditions: remark: other sources report otherwise.
A further experiment addresses FTO, Q9C0B1. As to conditions: remark: other sources report otherwise.

No constants are given. Whether binding was seen depends on the method and setting. In cells and extracts the contact can be indirect. Some results given as binding are weak or reduced against the parent protein; the word gives no strength. For some of these results: Tags and fused reporters may be left off the sequences shown.

B1: DSBH domain of ALKBH5 alone (domain or fragment, UniProt Q6P6C2 191-292)
chain: VINDYQPGGCIVSHVDPIHIFERPIVSVSFFSDSALCFGCKFQFKPIRVSEPVLSLPVRRGSVTVLSGYAADEITHCIRPQDIKERRAVIILRKTRLDAPRL
For the molecule B1, the binding result in experiment [1] and in experiment [2] was “binds” throughout.

B2: FLAG-DDX3 (full-length DDX3), O00571 1-662 (protein)
chain: MSHVAVENALGLDQQFAGLDLNSSDNQSGGSTASKGRYIPPHLRNREATKGFYDKDSSGWSSSKDKDAYSSFGSRSDSRGKSSFFSDRGSGSRGRFDDRGRSDYDGIGSRGDRSGFGKFERGGNSRWCDKSDEDDWSKPLPPSERLEQELFSGGNTGINFEKYDDIPVEATGNNCPPHIESFSDVEMGEIIMGNIELTRYTRPTPVQKHAIPIIKEKRDLMACAQTGSGKTAAFLLPILSQIYSDGPGEALRAMKENGRYGRRKQYPISLVLAPTRELAVQIYEEARKFSYRSRVRPCVVYGGADIGQQIRDLERGCHLLVATPGRLVDMMERGKIGLDFCKYLVLDEADRMLDMGFEPQIRRIVEQDTMPPKGVRHTMMFSATFPKEIQMLARDFLDEYIFLAVGRVGSTSENITQKVVWVEESDKRSFLLDLLNATGKDSLTLVFVETKKGADSLEDFLYHEGYACTSIHGDRSQRDREEALHQFRSGKSPILVATAVAARGLDISNVKHVINFDLPSDIEEYVHRIGRTGRVGNLGLATSFFNERNINITKDLLDLLVEAKQEVPSWLENMAYEHHYKGSSRGRSKSSRFSGGFGARDYRQSSGASSSSFSSSRASSSRSGGGGHGSSRGFGGGGYGGFYNSDGYGGNYNSQGVDWWGN
B2: the binding entry in the experiment with METTL3, Q86U44 is given as “no binding”; with FTO, Q9C0B1 it was “no binding”.

For the origin of these results see PMC5733242.
